Data as given in US5158939A, “Method of stimulating the immune systems of animals and compositions useful therefor” (priority 1990, dated 1992).

Tests used:
Format in all cases: cell-based
[1] = tested on: RAW 264.7 murine macrophage cells; assay: Cachectin/TNF production by RAW 264.7 cells, immunoblot
Method: For the […] to activate the RAW 264.7 murine macrophage cell line, we chose the toxic deep rough chemotype LPS (ReLPS) from Escherichia coli D31m4, which was recently purified and characterized^15. […] This is a clear example of a lipid A derivative showing strong antagonism against a toxic agonist in the induction of cachectin.
The immunoblot method was used to quantitate the cachectin/TNF production by RAW 264.7 murine macrophage cells. RAW 264.7 cells^4,16 were seeded in 24-well plates (Nunc) at a density of 3×10^5 cells/well in Dulbecco's modified Eagle's medium supplemented with 5 percent fetal calf serum. After 12 hours, cell monolayers were washed twice with 1 ml of serum-free medium and then left covered with […] of the same. An aqueous suspension of DPLA and/or ReLPS was then added to a final concentration indicated. Cells were incubated for 12 hours, after which the medium was removed for measurement of TNF by immunoblotting. One hundred μl of medium was mixed with 100 μl of SDS-containing sample buffer, heated to 100° C. for 5 minutes, and subjected to electrophoresis in a 10-15% polyacrylamide gradient gel. […]
Bands were visualized using nitroblue tetrazolium. Approximately 0.1 ng of cachectin/TNF may be detected as a band. […]

macrophage = tested on: macrophage
Description: In an effort to determine which structural features contributed to the non-toxic nature of the preferred compounds comparative tests were run with reduced RsDPLA and reduced E. coli DPLA in the extremely sensitive assay of pruning of macrophage by LPS/lipid A for PMA-stimulated superoxide anion release. […] The important features must be (a) the presence of five fatty acids in the RsDPLA vs. six fatty acids in E. coli DPLA and (b) the presence of a OH at C10 at the 3-position of RsDPLA vs. the OH at C14 in the E. coli DPLA.

70Z/3 cells = assay: Activation of 70Z/3 cells
Method: ^1 Corrected for background of 5% fluorescence.
^2 The DPLA stimulated 7OZ/3 preB cells to the extent of from 2.5-6.0
fluorescence at concentrations of 1.0-10 mg/ml. In the competitive
inhibition experiment, the cells were first exposed to DPLA for 2 hours
before adding the ReLPS. In all experiments, the ReLPS and DPLA were
complexed with bovine serum albumin.
In this experiment, 0.1 μg/ml of ReLPS and 3.0 μg/ml of DPLA were
^1 The time of pre/post treatment of 7OZ/3 cells with DPLA relative t
the time of addition of ReLPS are indicated.

## CCCCCCC=CCCCCCC(=O)OC(CCCCCCCCCCC)CC(=O)NC1C(OCC2OC(OP(=O)(O)O)C(NC(=O)CC(=O)CCCCCCCCCCC)C(OC(=O)CC(O)CCCCCCC)C2O)OC(CO)C(OP(=O)(O)O)C1OC(=O)CC(O)CCCCCCC (stereo not shown) [DPLA]
[1]
  induction of cachectin/TNF (immunoblot): lack of induction
macrophage
  activity in priming of macrophage for PMA-stimulated superoxide anion release: inactive or non-toxic
70Z/3 cells
  activation of 70Z/3 cells: inactive in the activations of 70Z/3 cells by toxic LPS
  stimulation of 70Z/3 preB cells by DPLA: 2.5-6.0
